{"source": "the RNAGym collection of RNA variant scans (doi:10.1073/pnas.2313332121)", "parents": {"B1": {"name": "TPR 5TU (parent)", "chain": "GGAUCUUCUCGAUCUAACAAAAAAGACAAAUCUGCCACAAAGCUUGAGAGCAUCUUCGGAUGCAGAGGCGGCAGCCUUCGGUGGCGCGAUAGCGCCAACGUUCUCAACUAUGACACGCAAAACGCGUGCUCCGUUGAAUGGAGUUUAUCAUG"}}, "note": "This sample is rich in variants without activity."}
{"variants_of": "B1", "assay": "polymerase ribozyme fitness, log enrichment relative to wild type (log ratio); higher = more active; in vitro selection for triplet polymerase activity", "summary_of_the_method": "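After PCR construction and transcription, each subunit's mutant library from a heterodimeric triplet polymerase ribozyme was annealed with a biotinylated primer, the partner subunit and triplets. Incubation was frozen, at −7 °C, and extended constructs were gel-excised, bound to streptavidin beads and amplified by RT-PCR, in one selection round done in triplicate. Fitness is the logarithm of a genotype's enrichment divided by that of the wild type, from inverse-variance-weighted replicate averages of Illumina-sequenced inputs and outputs. The base of the logarithm is 2, and genotypes needed ≥10 input reads and ≥1 read per output.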"}
{"variant": "GGCUCUUCUCGAUCUAACAAAAAAGACAAAUCUGCCACAAAGCUUGAGCGCAUCUUCGGAUGCAGAGGCGGCAGCCUUCGGUGGCGCGAUAGCGCAAACGUUCUCAACUAUGACACGCAAAACGCGUGCUCCGUUGAAUGGAGUUUAUCAUG", "note": "[A3C A49C C96A]", "polymerase ribozyme fitness (log ratio)": "≤ -4.2"}
{"variant": "GGCUCUUCUCGAUCUAACAAAAAAGACAAAUCUGCCACAAAGCUUGAGGGCAUCUUCGGAUGCAGAGGCGGCAGCCUUCGGUGGCACGAUAGCGCCAACGUUCUAAAAUAUGACACGCAAAACGCGUGCUCCGUUGAAUGGAGUUUAUCAUG", "note": "[A3C A49G G86A C105A C108A]", "polymerase ribozyme fitness (log ratio)": "≤ -4.2"}
{"variant": "GGCUCUUCUCGAUCUAACAAAAAAGACAAAUCUGCCACAAAGCUUGAGAGCUUCUUCGGAUGCAGAGGCGGCAGCCUUCGGUGGUGCGAUUGCGCCAACGUUCUCAACUAUGACACGCAAAACGCGUGCUCCGUUGAAUGGAGUUUAACAUG", "note": "[A3C A52U C85U A91U U148A]", "polymerase ribozyme fitness (log ratio)": "≤ -4.2"}
{"variant": "GGCUCUUCUCGAUCUAACAAAAAAGACAAAUCUGCCACAAAGCUUGAGAGCAUCUUCGGCUGCAGAGGCGACAGCCUUCGGUGGAGCGAUAGCGCCAACGUUCUCAACUAUGACACGCAAAACGCGUGCUCCGUUGAAUGGACUUUAUCAUG", "note": "[A3C A60C G71A C85A G143C]", "polymerase ribozyme fitness (log ratio)": "≤ -4.2"}
{"variant": "GGCUCUUCUCGAUCUAACAAAAAAGACAAAUCUGCCACAAAGCUUGAGAGCAUCUUCGGGUGCAGAGGCGGCAGCCUUCGGUGGCGCGAUAGCGCCAACGUUCUCAACUAUGACACGCAAAACGCGUGCUCCGUUGAAUGGAGUUUAUCAUG", "note": "[A3C A60G]", "polymerase ribozyme fitness (log ratio)": -0.264}
{"variant": "GGCUCUUCUCGAUCUAACAAAAAAGACAAAUCUGCCACAAAGCUUGAGAGCAUCUUCGGAUGCAGAGGCGGCAGCCUUCGGUGGCGCGAUUGCGCCAACGUUCUCAACUAUGACACGCAAAACGCGUGCUCCGUUGAAUGGAGUUUAUCAUG", "note": "[A3C A91U]", "polymerase ribozyme fitness (log ratio)": "≤ -4.2"}
{"variant": "GGCUCUUCUCGAUCUAACAAAAAAGACAAAUCUGCCACAAAGCUUGAGAGCAUCUUCGGAUGCAGAGGCGGCAGCCUUCGGUGGCGCGAUAGCGCCAACGUUCUCAACUAUGACACGCAAUACGCGUGCUCCGUUGAAUGGAGUUUAUCAUG", "note": "[A3C A121U]", "polymerase ribozyme fitness (log ratio)": 0.339}
{"variant": "GGCUAUUCUCGAUCUAACAACAAAGAUAAAUCUGCCACAAAGCUUGAGAGCAUCUUCGGAUGCAGAGGCGGCAGCCUUCGGUGGCGCGAUAGCGUCAAAGUUCUCAACUAUGACACGCAAAACGCGUGCUCCGUAGAAUGGAAUUUAUCAUG", "note": "[A3C C5A A21C C27U C95U C99A U135A G143A]", "polymerase ribozyme fitness (log ratio)": "≤ -4.2"}
{"variant": "GGCUAUUCUCGAUCUAACAAAAAAGACAAAUCUGCCACAAAGCUUGAGAGCCUCUUCGGAUGCAUAGGCGGCAGCCUUCGGUGGCGCGAUAGCGCCAAGGUUCUCAACUAUGACACGCAAAACGCGUGCUCCCUUGAAUGGAGUUUAUCAUG", "note": "[A3C C5A A52C G65U C99G G133C]", "polymerase ribozyme fitness (log ratio)": "≤ -4.2"}
{"variant": "GGCUGUUCUCGAUCUAACAAAAAAGACAAAUCUGCCACAAAGCUUGAGAGCAUUUGCGGGUGUAGAGGCGGCAGCCUUCGGUGGCGCGAUAGCGCCAACGUUCUCAACUAUGACAUGCAAAACGCGUGCUGCGUUGAAUGGAGUUUAUCAUG", "note": "[A3C C5G C54U U56G A60G C63U C116U C131G]", "polymerase ribozyme fitness (log ratio)": "≤ -4.2"}
{"variant": "GGCUUUUCUCGAUCUAACAAAAAAGAGAAAUCUGCCACAAAGCUUGAGAGCAUCUUCGGAUGCAGAGGCGGCAGCCGUCGGUGGCGCGAUAGGGCCAACGUUCUCAACUAUGACACGCAAAACGCGUGCUCCGUUGAAUGGAGUUUAUCAUG", "note": "[A3C C5U C27G U77G C93G]", "polymerase ribozyme fitness (log ratio)": "≤ -4.2"}
{"variant": "GGCUUUUCUCGAUCUAACAAAAAAGACAAAUCUGCCACAAAGCUUGAGAGCAUCUUCGGAUGCAGAGGCGGCAGACUUCGGUGGCCUGAUAGCGCCAGCGUUCUCAACUAUGACACGCAAAAUGCGUGCUCCGUUGAAUGGAGUAUAUCAUG", "note": "[A3C C5U C75A G86C C87U A98G C123U U145A]", "polymerase ribozyme fitness (log ratio)": "≤ -4.2"}
{"variant": "GGCUCUUAUCGAUCUAACAAAAAAGACACAUCUGCCACAAAGCUUGAGAGCCUAUUCGGAUGCAGAGGCGGCAGCCUUCGGUGGCGCGAUAGAGCGAACGUUCUCAAAUAUGACACGCAAAACGCGUGCUCCGCUGAAUGGAGUUUAUCAUG", "note": "[A3C C8A A29C A52C C54A C93A C96G C108A U134C]", "polymerase ribozyme fitness (log ratio)": "≤ -4.2"}
{"variant": "GGCUCUUAUCGAUCUAACAAAAAAGACAAAUCUGCCACAAAGCUUGAGAGCAUCAUCGGAUGCAGAGGCGGCAGCCUUCGGUGGCGCGAUAGCGCAAACGUUCUCAACUAUGACACGCAUAACGAGUGCUCCGUGGAUUGGAGUUUAUUCUG", "note": "[A3C C8A U55A C96A A120U C125A U135G A138U C149U A150C]", "polymerase ribozyme fitness (log ratio)": "≤ -4.2"}
{"variant": "GGCUCUUGUCGAUCUAACAAAAAAGACAAAUCUGCCACAAAGCUUGAGAGCAUCUUCGGAUGCAGAGGCGGCAGCCUUCGGUGGCGCGAUAGGGCCUACGUUCUCAACUAUGACACGCAAAACGCGUGCUCCGUUGAAUGGAGUUUAGCAUG", "note": "[A3C C8G C93G A97U U148G]", "polymerase ribozyme fitness (log ratio)": "≤ -4.2"}
{"variant": "GGCUCUUUUCGAUCUAAUAAAAAAGACAAAUCUGCCACAAAGCUUGAGGGCAUCUUCGGAUGCAGAGGCGGCAGCCUUCGGUGGCGAGAUAGCGCCAACGUUCUCAACUAUGACACGCAAAACGCGUGCUCCGUUGAAUGGAGUUUAUCAUG", "note": "[A3C C8U C18U A49G C87A]", "polymerase ribozyme fitness (log ratio)": "≤ -4.2"}
{"variant": "GGCUCUUCUAGAUCUAUCAAAAAAGACAAAUCUGCAACAAAGCUUGAGACCAUCUUCGGAUGCAGAGGCGGCAGCCUUCGGUGCCGCGAUAGCGCCAACGUUCUCAACUAUGACACGCAAAACGCGUGCUCCGUUGAAUGGAGUUUAUCAUG", "note": "[A3C C10A A17U C36A G50C G84C]", "polymerase ribozyme fitness (log ratio)": "≤ -4.2"}
{"variant": "GGCUCUUCUGGAUGUAACAAAAAAGACAAAUCUGCCACAGAGCUUGAGAGCAUCUUCGGAUGCAGAGGCGGCAGCCUUCGGUGGCGCGAUAGCGCCAACGUUCUCAACUAUGACACGCACAACGCGUGCUCCGUUGAAUGGCGUUUAUCAUG", "note": "[A3C C10G C14G A40G A120C A142C]", "polymerase ribozyme fitness (log ratio)": "≤ -4.2"}
{"variant": "GGCUCUUCUUGAUCUAAUAAUAAAGCCAAAUCUGACACAAAGCUUGAGAGCAUCUUCGGAUGCAGAGGCGGCAGCCUUCGGUGGCGCGAUAGCGCCAACGUUCUCAACUAUGACACGCAAAACGCGUGCUCCGUUGAAUGGAGUUUAUCAUG", "note": "[A3C C10U C18U A21U A26C C35A]", "polymerase ribozyme fitness (log ratio)": "≤ -4.2"}
